Assay results from PMC12040169 (PLOS Biology, 2025).
Some of the results follow.

The molecules below were run on T1, C. trachomatis L2/434/Bu expressing GFP (CTL2-GFP). Details: total inclusion area; 28.5 h, 10 µM; inhibitor.
T1 construct: L2/434/Bu GFP intracellular growth in HeLa cells
Set-up: species or system HeLa; C. trachomatis total inclusion area by high-content imaging, normalised to DMSO
Summary of the method: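 After bulk GFP and resorufin fluorescence reads, cells were fixed, stained with Hoechst and imaged by high-content microscopy. Inclusion area and number (GFP) stood in for chlamydial growth, nuclei count (Hoechst) for host cell viability. MICs were derived as for the bulk readout.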

Going from `Cc1ccccc1Sc1ccc(C(F)(F)F)cn1` [CBK115237] to `O=c1n(-c2cccc(C(F)(F)F)c2)ccn1S(=O)(=O)c1ccc(Cl)c(Cl)c1` [CBK106579], the “% of control remaining” value rises from 93.3839 to 98.2979.

First: O=S(=O)(Cc1csc(N2CCOCC2)n1)c1ccccn1 [CBK011137]
Second: O=C(c1cccc(NS(=O)(=O)Cc2ccccc2)c1)N1CCOCC1 [CBK038991]
The “% of control remaining” value of the first is lower: 76.7759 for the first, 80.598 for the second.

Going from `O=C(O)C1CCN(c2cncc(-c3ccc4ccccc4c3)n2)CC1` [CBK065801] to `O=C(NC1CCCc2c1cnn2Cc1ccccc1)c1ccncc1` (stereo not drawn) [CBK282250], the “% of control remaining” value falls from 103.069 to 96.8293.

First: O=S1(=O)CCN(Cc2ccc3c(c2)OCCCO3)CC1 [CBK074831]
Second: CC1CCN(c2nc3nonc3nc2Nc2ccc3c(c2)OCO3)CC1 [CBK077551]
The “% of control remaining” value of the first is higher: 91.2268 for the first, 52.6612 for the second.

Compared with `CSc1ncc(Cl)c(C(=O)Nc2nc(-c3ccc(S(=O)(=O)N4CCCCCC4)cc3)cs2)n1` [CBK268785], `O=C(Nc1ccc(S(=O)(=O)N2CCCC2)cc1)C1CC(=O)N(Cc2ccco2)C1` (stereo not drawn) [CBK297500] is higher in “% of control remaining” value: 100.068 for the first, 100.122 for the second.

Compared with `COC(=O)c1cn([C@H]2CO[C@H]3[C@@H]2OC[C@@H]3NC(=O)NC2CCCCC2)nn1` [CBK289499], `Cc1sc(NC(=S)NC(=O)C2CCCCC2)c(C(N)=O)c1C` [CBK266273] is lower in “% of control remaining” value: 115.331 for the first, 99.5585 for the second.

Going from `CCOC(=O)COc1cccc(/C=C2/SC(=S)N(c3cccc(C(=O)O)c3)C2=O)c1` [CBK265589] to `O=C1/C(=C2/Sc3ccccc3N2CCCS(=O)(=O)O)SC(=S)N1c1ccccc1` [CBK260954G], the “% of control remaining” value falls from 97.9106 to 96.0089.

Going from `Cc1ccccc1C(=O)N1CCC(O)(Cn2ccnc2C)CC1` [CBK284950] to `Cc1nccn1CC1(O)CCN(Cc2c[nH]c3ccccc23)CC1` [CBK282671], the “% of control remaining” value rises from 104.42 to 108.16.

First: CCOC(=O)c1cnn2c(O)cc(CN3CCc4ccccc4C3)nc12 [CBK305679]
Second: COc1cccc(C(=O)N2Cc3ccccc3CC2C(=O)O)c1 (stereo not drawn) [CBK287150]
The “% of control remaining” value of the first is lower: 80.1714 for the first, 119.714 for the second.

First: Cc1ccccc1-c1ccc(C(=O)N(C)CCN(C)C)c(N(C)C)n1 [CBK106090]
Second: CCN(CC)S(=O)(=O)c1ccc(C)c(C(=O)Oc2cccc(-c3cnc4ccccc4n3)c2)c1 [CBK264577]
The “% of control remaining” value of the first is lower: 93.6853 for the first, 102.525 for the second.

First: O=S(=O)(Nc1ncc(Br)c2cccnc12)c1ccc(Oc2ccccc2)cc1 [CBK073886]
Second: CC(=O)Nc1ccc(S(=O)(=O)NCCCc2ccccc2)cc1 [CBK265488]
The “% of control remaining” value of the first is higher: 90.8996 for the first, 90.2253 for the second.

First: CC(C)(C)OC(=O)NCCCn1cc(C(=O)O)nn1 [CBK287028]
Second: COC(=O)NC(O)C(=O)c1cccs1 (stereo not drawn) [CBK027755]
The “% of control remaining” value of the first is higher: 90.1745 for the first, 89.6181 for the second.

Compared with `COc1ccc(NC(=O)CSc2nc(N)n[nH]2)cc1Cl` [CBK268065], `O=C(Cc1nn[nH]n1)Nc1ccc(F)c(Cl)c1` [CBK006384] is higher in “% of control remaining” value: 92.1852 for the first, 99.9893 for the second.

Going from `CCOC(=O)c1c(NC(=O)C2CCCN2S(=O)(=O)c2ccccc2)sc2c1CCCC2` (stereo not drawn) [CBK265012] to `CCOC(=O)c1c(NC(=O)CNCc2cccnc2)sc2c1CCCC2` [CBK304577], the “% of control remaining” value falls from 84.5711 to 55.6581.

Compared with `O=C(NC(c1ccccc1)c1ccco1)C1CCN(CCN2C(=O)c3ccccc3C2=O)CC1` (stereo not drawn) [CBK148297], `COc1ccccc1-c1ccccc1CC1(C(=O)NCc2cccc(F)c2)CCOCC1` [CBK286426] is lower in “% of control remaining” value: 99.1493 for the first, 93.9765 for the second.

Compared with `CC1(C)NC(=O)N(CC(O)COc2ccc([N+](=O)[O-])cc2)C1=O` (stereo not drawn) [CBK262840], `CN(C)CCN1C(=O)C(O)=C(C(=O)c2ccco2)C1c1ccc([N+](=O)[O-])cc1` (stereo not drawn) [CBK264486] is lower in “% of control remaining” value: 90.3511 for the first, 83.4447 for the second.

Going from `CCN1C(=O)CC2(C1=O)C(=O)N(CCCOc1ccccc1)c1ccc(OC)cc12` (stereo not drawn) [CBK075585] to `COc1ccc2[nH]c3c(c2c1)CCNC31CCN(C(=O)COc2ccccc2)C1` (stereo not drawn) [CBK061661], the “% of control remaining” value falls from 107.019 to 97.7356.

Going from `NS(=O)(=O)c1ccc(CCNC(=O)/C=C/c2ccccc2[N+](=O)[O-])cc1` [CBK265709] to `O=S(=O)(O)c1ccc(N/N=C/c2cccc(/C=N/Nc3ccc(S(=O)(=O)O)cc3)c2)cc1` [CBK278204N], the “% of control remaining” value rises from 92.3183 to 96.222.

First: Cc1ccc(CN(CCCn2ccnc2)Cc2ccccc2O)o1 [CBK283189]
Second: CNCCCC1(c2ccccc2)SC(C)(C)c2ccccc21 (stereo not drawn) [CBK015933C]
The “% of control remaining” value of the first is higher: 109.899 for the first, 18.6703 for the second.

First: COc1ccc(C)cc1NC(=O)CN(c1ccc(F)cc1)S(=O)(=O)c1ccc(C)cc1 [CBK264122]
Second: COc1ccc(OCC(=O)N/N=C\c2c(OC)ccc3ccccc23)c(Br)c1 [CBK261235]
The “% of control remaining” value of the first is higher: 88.4176 for the first, 76.3948 for the second.

Compared with `COc1ccc(-c2noc([C@@H]3C[C@@H](O)CN3C3CCOCC3)n2)cc1` [CBK288844], `COc1ccc(OCc2nnn[nH]2)cc1` [CBK270000] is lower in “% of control remaining” value: 113.164 for the first, 92.8115 for the second.

First: CCCNc1cncc(-c2cccc(O)c2)n1 [CBK065447]
Second: Cc1onc(-c2ccccc2)c1NC(=O)Nc1cc2ccccc2c(Br)n1 [CBK105489]
The “% of control remaining” value of the first is lower: 87.2824 for the first, 100.986 for the second.

First: CC(C)Nc1cncc(OCCN2CCOCC2)n1 [CBK115599]
Second: O=[N+]([O-])c1ccc(CN2CCC(Oc3cncc(OCC4COc5ccccc5O4)n3)C2)cc1 (stereo not drawn) [CBK084369]
The “% of control remaining” value of the first is higher: 99.6148 for the first, 83.6181 for the second.

Going from `Cn1c2ccccc2c2cc(C(O)(CC(=O)CC(O)(c3ccc4c(c3)c3ccccc3n4C)C(F)(F)F)C(F)(F)F)ccc21` (stereo not drawn) [CBK262254] to `c1ccc(-c2nc3ccc(Cc4ccc5nc(-c6ccccn6)c(-c6ccccn6)nc5c4)cc3nc2-c2ccccn2)nc1` [CBK261975], the “% of control remaining” value rises from 85.6844 to 111.884.

Compared with `Cn1nnnc1SCCNCc1ccc2c(c1)n(C)c(=O)n2C` [CBK270080C], `COCC1(C)NC(=O)N(Cc2nn(-c3ccccc3)c3c2CCC3)C1=O` (stereo not drawn) [CBK306483] is lower in “% of control remaining” value: 102.969 for the first, 92.1021 for the second.

Going from `O=C(c1c(F)cccc1F)N1CCC(O)(c2ccccn2)CC1` [CBK283670] to `Cc1nc(CN2CCC(O)(c3ccccc3F)CC2)c2ccccn12` [CBK282799], the “% of control remaining” value rises from 75.4142 to 139.502.

First: O=C1CCCN1CCCNC(=O)C1(c2ccccc2)COc2ccccc21 (stereo not drawn) [CBK017653]
Second: CC1CCCCN1CC(=O)Nc1ccccc1Oc1ccccc1 (stereo not drawn) [CBK023182C]
The “% of control remaining” value of the first is higher: 99.2104 for the first, 69.5726 for the second.

First: O=c1c2nnc3ncnn3c2ccn1-c1ccccc1 [CBK288075]
Second: O=C1CC(C(=O)Nc2ccccc2)n2cnnc2N1 (stereo not drawn) [CBK287980]
The “% of control remaining” value of the first is higher: 83.6219 for the first, 74.9545 for the second.

Going from `O=S(=O)(NCc1ccccc1)N1CCCCCC1` [CBK269569] to `COc1ccc(Cl)cc1S(=O)(=O)N1CCC(C(N)=O)(N2CCCCC2)CC1` [CBK269571], the “% of control remaining” value falls from 96.5791 to 93.1649.

Going from `O=C(CCC1COc2ccccc2O1)Nc1ccc(C(=O)O)cc1` (stereo not drawn) [CBK269856] to `N#Cc1cccc(NC(=O)CN2CCN(C(=O)C3COc4ccccc4O3)CC2)c1` (stereo not drawn) [CBK074779], the “% of control remaining” value rises from 85.2789 to 97.5419.

First: O=C(Nc1nccs1)c1cccc(Cl)c1Cl [CBK058011]
Second: O=C(Cc1cn2ccsc2n1)NCCS(=O)(=O)N1CCc2ccccc21 [CBK304282]
The “% of control remaining” value of the first is lower: 59.2126 for the first, 89.3517 for the second.

Going from `O=C1N=C(NC2CCCCCC2)SC1Cc1ccc(O)cc1` (stereo not drawn) [CBK067868] to `CCCCN(C=O)c1c(CC)nc2ccc(C(=O)NCC3CCCCC3)cn12` [CBK145708], the “% of control remaining” value rises from 23.0649 to 101.982.

Going from `CC1(C)OCc2nc(C(O)C(C)(C)C)ccc2O1` (stereo not drawn) [CBK005386] to `COc1ccc(-c2cnc3[nH]c(=O)n(CC(C)(C)CO)c3n2)c(OC)c1OC` [CBK064833], the “% of control remaining” value rises from 45.0148 to 125.779.

Going from `CN(Cc1cc(Br)cs1)C(=O)CCN1C(=O)COc2ccccc21` [CBK298308] to `Cn1c2c(c(=O)n(C)c1=O)[C@@H]1C(C[C@](O)(COCc3ccccc3)[C@H]1O)C1(CCC1)N2` (stereo partly drawn) [CBK303265], the “% of control remaining” value rises from 84.5812 to 115.015.

Compared with `CS(=O)(=O)Nc1ccc(C2=NN(S(C)(=O)=O)C(c3ccc4nccnc4c3)C2)cc1` (stereo not drawn) [CBK267546], `COc1ccc(C)cc1S(=O)(=O)n1ccc2c(CNC3CCN(C)CC3)cccc21` [CBK113308T] is lower in “% of control remaining” value: 81.5353 for the first, 69.4588 for the second.

First: O=C(Oc1ccc(N(C(=O)c2ccncc2)S(=O)(=O)c2cccc3cccnc23)cc1)c1ccncc1 [CBK267123]
Second: COC(=O)c1cc(C#N)c(=O)n(CC(=O)Nc2ccc(OC)c(OC)c2)c1 [CBK297926]
The “% of control remaining” value of the first is higher: 115.549 for the first, 93.5441 for the second.

First: CC(C)[C@H](CO)Nc1nccnc1-c1ccccc1F [CBK037987]
Second: CCOc1ncccc1NC(=O)N(CC1CCOC1)C1CC1 (stereo not drawn) [CBK305077]
The “% of control remaining” value of the first is higher: 83.7271 for the first, 75.054 for the second.

Compared with `CCNC(=O)N[C@H]1C[C@@H](Cc2cc(CN(C)C)on2)C1(C)C` [CBK289310], `CN(C)CCO/N=C1\CC2(CCCC2)c2ccc(Cl)cc21` [CBK013334] is lower in “% of control remaining” value: 121.361 for the first, 52.9994 for the second.

First: CSCC(O)Cn1nc(O)cc(C)c1=O (stereo not drawn) [CBK006293]
Second: Cc1nc(-c2cccnc2)[nH]c(=O)c1CC(=O)N1CCSCC1 [CBK305944]
The “% of control remaining” value of the first is higher: 62.9163 for the first, 26.7573 for the second.
